# PubChem BioAssay AID493208 (National Center for Advancing Translational Sciences (NCATS), 2011)
# Screen size: about 44,000 compounds; about 340 (0.77%) were called active. Not shown: some 5% with an inconclusive outcome. Calls follow the shape of the dose curve; as a rule, active = well fitted inhibition curve with a large enough effect; inconclusive = small, poorly fitted or top-dose-only effect; inactive = flat fitted curve, though single readings scatter. This is one part of the list.
# Test: Acumen qHTS Assay for Inhibitors of the mTORC1 Signaling Pathway in MEF (Tsc2-/-, p53-/-) Cells: Sytravon;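 also: plate controls were DMSO for no effect and rapamycin for full effect; nearly all actives have a fitted effect of over 50% in size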
# Settings: phospho-rpS6 immunofluorescence/PI, 24 h; series mostly up to 38.3 µM; activity change, negative = inhibition: at the top concentration
# Procedure, shortened: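 Plate MEFs (Tsc2-/-, p53-/-, empty vector) in DMEM/10% FBS; after 24 h add compound, incubate 24 h at 37 degree Celsius; fix in PFA/TX-100, block, stain phospho-rpS6 and 10 uM PI; scan at 488 nm; report % positive cells.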
row,SMILES,"activity change, negative = inhibition"
1,CCOc1ccc(NC(=O)Cc2coc3ccc(C)cc23)cc1,inactive: -19.7%
2,COc1ccc(-c2cc(C(F)F)n3ncc(C(=O)Nc4cc(OC)ccc4OC)c3n2)cc1,inactive: 0.987%
3,COc1ccccc1CNC(=O)Cn1c(=O)oc2cc(S(=O)(=O)N3CCC(C)CC3)ccc21,inactive: -5.13%
4,COc1ccccc1NC(=O)CSc1ccc(-c2sc(C)nc2C)nn1,inactive: -5.98%
5,Cc1cccc(-c2nc(CCNC(=O)Cc3ccc(F)cc3)cs2)c1,inactive: -19.6%
6,CCC(Nc1ccc(-c2nc(-c3ccco3)no2)cc1[N+](=O)[O-])c1ccccc1 (stereo not given),inactive: -15.4%
7,COc1ccc(C2c3cccn3CCN2S(=O)(=O)c2ccccc2[N+](=O)[O-])cc1OC (stereo not given),inactive: -0.378%
8,CCc1ccc2occ(CC(=O)Nc3c(C(=O)Nc4ccc(OC)cc4)oc4ccccc34)c2c1,inactive: -1.97%
9,O=C(NCc1ccccc1)c1nnc(Cc2cccc(F)c2)o1,inactive: -0.213%
10,Cc1cccn2cc(-c3cccc(NS(=O)(=O)c4ccc(Cl)c(Cl)c4)c3)nc12,inactive: -1.28%
11,CCc1ccc(CNC(=O)CCc2c(C)nn(-c3ccc(N4CCCCC4)nn3)c2C)cc1,inactive: -2.28%
12,O=C(NCC(c1ccc2c(c1)OCO2)N1CCOCC1)c1ccccc1F (stereo not given),inactive: -1.69%
13,CC(CNC(=O)Cn1ccc2cc(S(=O)(=O)N3CCCCC3)ccc21)c1ccccc1 (stereo not given),inactive: -18.8%
14,Cc1cc2nn(-c3ccc(F)cc3)nc2cc1NC(=O)c1ccc(OC(C)C)cc1,inactive: 3.16%
15,CCOc1ccc(CCNC(=O)C2CCN(C(=O)N3CC(CC)Oc4ccc(C)cc43)CC2)cc1 (stereo not given),inactive: 0.597%
16,Cc1ccc2nc(Cl)c3cc(C(=O)N(C)C4CCCCC4)sc3c2c1,inactive: -7.09%
17,COc1cccc(Cn2c(=O)n(-c3cccc(Cl)c3C)c(=O)c3c4c(sc32)CN(C(C)=O)CC4)c1,inactive: -3.32%
18,Cc1ccc(NC(=O)CSc2nc3ccc(NC(=O)c4cccs4)cc3s2)c(C)c1,inactive: 0.0346%
19,CCOC(=O)c1c(C)oc2nc(C)nc(NCC3CCN(Cc4cccc(C)c4)CC3)c12,inactive: 1.1%
20,CC1=C(c2ccc(C)c(C)c2)S(=O)(=O)N=C1N1CCN(c2cccc(C(F)(F)F)c2)CC1,inactive: -10.2%
21,CCOc1ccc(-n2c(=O)c3c4c(sc3n(Cc3cccc(Cl)c3)c2=O)CCCC4)cc1,inactive: -12.1%
22,Cc1ccc(NC(=O)Cn2c(=O)n(-c3ccc(CC(=O)NCC4CCCO4)cc3)c(=O)c3ccccc32)cc1 (stereo not given),inactive: 2.28%
23,O=C(NCC(c1ccc2c(c1)OCO2)N1CCOCC1)c1ccc(F)cc1 (stereo not given),inactive: -10.3%
24,Cc1ccc(/C=C(\C#N)c2nc(-c3cc4c(ccc5ccccc54)oc3=O)cs2)cc1,inactive: 3.06%

row,SMILES,"activity change, negative = inhibition"
1,CCCC(=O)N(c1ccc2oc(-c3ccccc3)c(C(=O)OCC)c2c1)S(=O)(=O)c1ccc(C)cc1,inactive: 4.93%
2,COCCCNC(=O)Cn1c(=O)n(CCCC(=O)NCc2ccc(C)cc2)c(=O)c2ccccc21,inactive: 6.16%
3,CCCCN1CC(c2nc3ccccc3n2CCCCOc2c(C)cccc2C)CC1=O (stereo not given),inactive: 4.23%
4,CCOc1ccc(Sc2cc(C(=O)NCCc3ccc(OC)c(OC)c3)c3ccccc3n2)cc1,inactive: 6.77%
5,CCn1cc(C(=O)N2CCN(c3ccccc3OC)CC2)c(=O)c2cc(S(=O)(=O)N3CCCCC3)ccc21,inactive: 0.224%
6,COc1ccc(-c2nn(-c3ccccc3)cc2C(=O)Nc2ccccc2OC)cc1,inactive: -3.46%
7,Cc1cccc(C(=O)Nc2ccccc2-c2nc(-c3ccccc3)no2)c1,inactive: -9.25%
8,CC(C)CN(c1ccccc1)S(=O)(=O)c1nnc(NC(=O)c2ccco2)s1,inactive: -3.33%
9,Cn1cc(C(=O)NCc2ccc(F)cc2)c(=O)c2cc(S(=O)(=O)N3CCCCC3)ccc21,inactive: 0.505%
10,O=C(CCSCc1ccccc1F)N1CCN(c2ccc(F)cc2)CC1,inactive: 9.55%
11,COc1ccc(NC(=O)N2CCc3c(sc4c3CCCC4)C2c2ccc(F)cc2)cc1 (stereo not given),inactive: 19.9%
12,COc1cc(OC)c(NC(=O)c2oc3ccc4c(c3c2C)C(=O)CC(C)(C)O4)cc1Cl,inactive: 0.203%
13,CCOc1ccccc1NC(=O)Cn1c(=O)n(Cc2ccc(C(=O)NCCCOC)cc2)c(=O)c2ccccc21,inactive: -16.6%
14,CCn1c(=O)c2cc(C(=O)N(C)c3cc(C)ccc3C)sc2c2ccccc21,inactive: 2.86%
15,O=C(O)c1cccc(NC(=O)c2cccc(S(=O)(=O)Nc3cccc(C(=O)O)c3)c2)c1,inactive: 1.23%
16,CC(C)c1ccc(Nc2nc3ccc(C(=O)c4ccccc4)cc3n3cnnc23)cc1,inactive: -2.53%
17,CCN(C(=O)c1sc2nc3n(c(=O)c2c1C)CCCCC3)c1ccccc1F,inactive: 6.37%
18,CCc1ccc(CNC(=O)c2cc3c(=O)oc4ccc(C)cc4c3s2)cc1,inactive: -6.07%
19,Cc1ccc(NC(=O)Nc2nnc(N3CCCCC3)s2)c(C)c1,inactive: -14.3%
20,COc1ccc(NC(=O)c2ccc3snnc3c2)cc1OC,inactive: -0.392%
21,COc1cc(OC)cc(-n2c(=O)[nH]c3cc(C(=O)NCCc4ccc(C)cc4)ccc3c2=O)c1,inactive: -11.9%
22,CN(C)C(=O)c1ccc(S(=O)(=O)NCc2ccccc2Cl)s1,inactive: 0%
23,COc1ccc(-n2cc3c(c2-c2cccc(Br)c2)c(=O)n(C)c(=O)n3C)cc1OC,inactive: -9.93%
24,COc1cccc(NC(=O)Cn2c(=O)n(Cc3ccccc3)c(=O)c3c4c(sc32)CN(C(C)=O)CC4)c1,inactive: -2.87%

row,SMILES,"activity change, negative = inhibition"
1,COc1ccc(-c2cc(C(F)(F)F)nc(SCC(=O)NCc3ccc(F)cc3)n2)cc1,inactive: -2.43%
2,CCCCc1ccc(NC(=O)Cn2cnc3c2c(=O)n(C)c(=O)n3C)cc1,inactive: 10.6%
3,COC(=O)c1ccccc1NC(=O)c1nc(SCc2ccccc2C)ncc1Cl,inactive: -7.76%
4,Cc1c(CNCCCc2ccccc2)c(C(=O)O)c(C)n1Cc1ccc(Cl)cc1,inactive: 5%
5,O=c1c2oc3ccccc3c2n(Cc2ccccc2F)c(=O)n1Cc1ccco1,inactive: 3.1%
6,Cc1ccc(Cn2cc(CCC(=O)NC3CCCCC3)c3ccccc32)cc1,inactive: -10.4%
7,COc1ccc(S(=O)(=O)NC2(C(F)(F)F)NC(=O)N(CCc3ccccc3)C2=O)cc1 (stereo not given),inactive: -5.73%
8,CCCCCSc1nnc2c(n1)OC(c1ccc(C)s1)N(C(C)=O)c1ccccc1-2 (stereo not given),inactive: 4.21%
9,Cc1cccc(N2CCN(C(=O)Nc3ccc(F)cc3)CC2C)c1 (stereo not given),inactive: -6.8%
10,Cc1ccccc1NC(=O)Nc1nnc(N(C)Cc2ccccc2)s1,inactive: -3.16%
11,Cc1c(Cl)cccc1N1CC(c2nc3ccccc3n2Cc2ccccc2F)CC1=O (stereo not given),inactive: -16.7%
12,Oc1ccccc1-c1nc(/C=C/c2ccc(F)cc2)no1,inactive: 7.06%
13,COc1ccccc1NC(=O)CN1C(=O)C(c2ccc(F)cc2)=NC1(C)C,inactive: -0.396%
14,Cc1cccc(NC(=O)Cn2c(=O)n(Cc3ccc4c(c3)OCO4)c(=O)c3ccccc32)c1,inactive: 4.09%
15,CCS(=O)(=O)c1c(Nc2ccc(F)c(Cl)c2)sc(C(=O)c2ccccc2)c1N,inactive: 1.38%
16,CCOc1ccc(-c2ccc(NS(=O)(=O)c3cc(C)ccc3OC)cc2)nn1,inactive: 0.101%
17,Cc1ccc(N2CCN(C(=O)c3nn(C)c4c3CS(=O)(=O)c3ccccc3-4)CC2C)cc1 (stereo not given),inactive: 4.12%
18,O=C(CC1N=C2c3ccccc3N=C(SCc3ccccc3Cl)N2C1=O)NC1CCCCC1 (stereo not given),inactive: 0.0972%
19,COc1ccc(Cl)cc1-n1c(CCC(=O)O)ccc1-c1ccc(C)cc1,inactive: -0.474%
20,Cc1cc(=O)[nH]c(SCC(=O)N2CCN(c3ccccc3)CC2)n1,inactive: 3.18%
21,COc1ccc(-c2nc3ccc(C(=O)NCc4ccc(C)cc4)cc3nc2-c2ccc(OC)cc2)cc1,inactive: 5.7%
22,CC1CCN(S(=O)(=O)c2ccc3c(c2)N(CC(=O)Nc2ccc(F)c(Cl)c2)C(=O)CO3)CC1,inactive: -16.8%
23,COc1ccc(Br)cc1CNC(=O)CCSCc1ccc(Cl)cc1,inactive: 0%
24,CCC(=O)N1CCc2cc(CNS(=O)(=O)c3cc(Cl)ccc3OC)ccc21,inactive: 11.9%

row,SMILES,"activity change, negative = inhibition"
1,Cc1nn(CC(=O)N2CCN(c3ccccc3)CC2)c(=O)c2cc3sccc3n12,inactive: 4.15%
2,Cc1ccc(OCCn2c(COc3ccc(Cl)cc3)nc3ccccc32)cc1,inactive: -20.4%
3,CCC(C)NC(=O)Cn1cnc2sc(C)c(S(=O)(=O)N3CCN(c4ccccc4OC)CC3)c2c1=O (stereo not given),inactive: 5.42%
4,Cc1c(C(=O)Nc2cccc(Cl)c2)oc2ccc(S(=O)(=O)N3CCOCC3)cc12,inactive: 7.87%
5,COc1cccc(NC(=O)N2CCC(CN3CCOCC3)CC2)c1,inactive: -2.6%
6,Cc1cccc(N2CCN(S(=O)(=O)c3c(C)nc4scc(C)n4c3=O)CC2C)c1 (stereo not given),inactive: 2.1%
7,Cc1ccc(CCNC(=O)CN2N=C(c3ccc(C)cc3)CCC2=O)cc1,inactive: -0.293%
8,CCc1ccccc1NC(=O)Cn1c(=O)ccc2cc(S(=O)(=O)N3CCC(C)CC3)ccc21,inactive: -1.39%
9,CC1CCN(C(=O)c2ccc(NC(=O)c3nsc4ccccc34)cc2)CC1,inactive: 0.301%
10,CCOC(=O)c1sc(NC(=O)c2nc3nc(C)cc(C(F)F)n3n2)c(C(=O)OC)c1C,inactive: 4.04%
11,CCOc1cccc(C2c3c(oc4cc(C)c(C)cc4c3=O)C(=O)N2c2nc(C)c(C)s2)c1 (stereo not given),inactive: 2.22%
12,COc1cccc(-c2cc(C(=O)Nc3cccnc3Cl)no2)c1,inactive: 9.09%
13,Cc1ccc(NC(=O)CN2C(=O)C(C)(C)c3cc(S(=O)(=O)N4CCCCC4)ccc32)c(Br)c1,inactive: -5.58%
14,Cn1nc(C(=O)Nc2ccccc2C#N)c2c1-c1ccccc1SC2,inactive: 1.03%
15,CCOc1ccc(Nc2oc(/C=C/c3cc(OC)c(OC)c(OC)c3)nc2C#N)cc1,inactive: -11.5%
16,O=C(COC(=O)c1cc(-c2cccs2)nc2ccccc12)c1ccc(Cl)cc1,inactive: 1.37%
17,COc1cc(C(=O)NCCSc2c(C)[nH]c3ccccc23)cc(OC)c1OC,inactive: -1.06%
18,COc1ccc(NC(=O)CN(C)S(=O)(=O)c2cnc[nH]2)cc1,inactive: 0.18%
19,CCOc1ccc(NC(=O)CSc2nc3ccccc3c(=O)n2CCC(=O)NC2CCCCC2)cc1,inactive: -0.384%
20,O=C(NC1CC(=O)N(c2ccc(Cl)cc2)C1)C1CCCCC1 (stereo not given),inactive: 0.358%
21,COc1cccc(NS(=O)(=O)c2cc(-c3cnc(C4CC4)o3)ccc2C)c1,inactive: -9.68%
22,COc1ccc(-c2noc(C3CC(=O)N(c4ccc5c(c4)OCCO5)C3)n2)c(OC)c1 (stereo not given),inactive: -0.568%
23,COC(=O)c1c(NC(=O)/C(C#N)=C/c2ccc(OC)cc2)sc2c1C(C(=O)OC)CC2 (stereo not given),inactive: -8.29%
